Results taken from PubChem BioAssay (NCATS).
“And” between values parts separate entries of the source, which are not always exact repeats. Identical values can stand only once. The inconclusive results got no clear call from the source; some entries with a clear call stand among them for comparison. Potencies of inconclusive entries are left out as doubtful fits. The source made the active and inactive calls. Calls come from the whole dose curve; as a rule, active = well fitted curve in the direction sought with a large enough effect; inconclusive = small, poorly fitted or top-dose-only effect, or another doubt; inactive = no such curve, though single readings can be large; an effect the other way counts as inactive or inconclusive.

How the values were obtained:
[1] = qHTS of pediatric cancer cell lines to identify multiple opportunities for drug repurposing: Primary screen for Rh30 cells (AID 1347107); note: nearly all actives have a fitted effect of over 75% in size
Outline: (§1)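 Cells (500-1,000/well) in growth media were settled 5 h at 37 degrees C, then given compounds for 48 h. Viability was read as CellTiter-Glo luminescence. Primary runs used MIPE at 11 points (0.78 nM-46 µM) and NPC at 8 points (0.59 nM-46 µM); follow-ups used 11 points.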

[2] = qHTS of pediatric cancer cell lines to identify multiple opportunities for drug repurposing: Confirmatory screen for BT-12 cells (AID 1347112); note: nearly all actives have a fitted effect of over 55% in size
Outline: as §1

[3] = qHTS of pediatric cancer cell lines to identify multiple opportunities for drug repurposing: Confirmatory screen for DAOY cells (AID 1347114); note: nearly all actives have a fitted effect of over 65% in size
Outline: (§2)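 Viability measured as metabolically active cells via CellTiter-Glo luminescence following 48 hours of compound exposure, 11-point dilutions in confirmatory testing. 500-1,000 cells/well plated 5 hours before dosing; controls were DMSO and 2.3 µM bortezomib.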

[4] = qHTS of pediatric cancer cell lines to identify multiple opportunities for drug repurposing: Confirmatory screen for NB-EBc1 cells (AID 1347115);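 note: cells exposed to compound for 48 h before the viability read; nearly all actives have a fitted effect of over 45% in size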
Outline: as §1

[5] = qHTS of pediatric cancer cell lines to identify multiple opportunities for drug repurposing: Confirmatory screen for SJ-GBM2 cells (AID 1347116); note: nearly all actives have a fitted effect of over 60% in size
Outline: as §2

[6] = qHTS of pediatric cancer cell lines to identify multiple opportunities for drug repurposing: Confirmatory screen for SK-N-MC cells (AID 1347111);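 note: cells exposed to compound for 48 h before the readout; nearly all actives have a fitted effect of over 70% in size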
Outline: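 Metabolically active cells were quantified by ATP-dependent luminescence (CellTiter-Glo, 15 min at room temperature) following 48 h treatment. Cells had been plated at 500-1,000 per well and settled for 5 h beforehand.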

[7] = qHTS of pediatric cancer cell lines to identify multiple opportunities for drug repurposing: Confirmatory screen for LAN-5 cells (AID 1347113); note: nearly all actives have a fitted effect of over 65% in size
Outline: as §1

[8] = qHTS of pediatric cancer cell lines to identify multiple opportunities for drug repurposing: Primary screen for Rh41 cells (AID 1347108); note: nearly all actives have a fitted effect of over 70% in size
Outline: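 Cells plated at 500-1,000/well in growth medium, compounds added after 5 h. MIPE tested at 11 points (from 0.78 nM), NPC at 8 points (from 0.59 nM). CellTiter-Glo luminescence after 48 h; concentration-response curves from primary screen.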

[9] = qHTS of pediatric cancer cell lines to identify multiple opportunities for drug repurposing: Confirmatory screen for A673 cells (AID 1347110);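 note: cells exposed to compound for 48 h before the viability read; nearly all actives have a fitted effect of over 65% in size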
Outline: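 Forty-eight-hour viability assay. Follow-up compounds ran at 11-point dilutions; positive control bortezomib at 2.3 uM final, neutral control DMSO.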

[10] = qHTS of pediatric cancer cell lines to identify multiple opportunities for drug repurposing: Confirmatory screen for NB1643 cells (AID 1347109); conditions: NB1643 neuroblastoma cell viability; series mostly up to 45.9 µM; note: nearly all actives have a fitted effect of over 45% in size
Outline: as §1
Potency is the fitted concentration of half-maximal effect; tags give direction and shape of the fitted curve.

Compound	Potency [1]	Potency [2]	Potency [3]	Potency [4]	Potency [5]	Potency [6]	Potency [7]	Potency [8]	Potency [9]	Potency [10]
Cc1ccc(C(=O)Nc2cccc(C(F)(F)F)c2)cc1-c1ccc2nc(NCCN3CCOCC3)ncc2c1	inconclusive [cytotoxic, partial curve]	inconclusive [cytotoxic, full curve]	active: 20.8 µM	inconclusive [cytotoxic, full curve]	active: 13.1 µM					
NS(=O)(=O)OC[C@@H]1C[C@@H](n2ccc3c(N[C@H]4CCc5ccccc54)ncnc32)C[C@H]1O	inconclusive [cytotoxic, partial curve]	inactive	inconclusive [cytotoxic, partial curve]			inactive	inconclusive [cytotoxic, partial curve, poor fit]			
Nc1ncnc2c1ncn2[C@@H]1O[C@H](CO)[C@@H](O)[C@@H]1O	inconclusive [cytotoxic, full curve]	inconclusive [cytotoxic, full curve, poor fit]		inconclusive [cytotoxic, partial curve]	inconclusive [cytotoxic, partial curve]			active: 2.35 µM	inactive	
COc1cc2c(Nc3ccc(Br)cc3F)ncnc2cc1OCC1CCN(C)CC1	inconclusive [cytotoxic, partial curve]		inconclusive [cytotoxic, single point]		inactive	inactive	inactive		inconclusive [cytotoxic, single point]	inactive
CC(=O)Oc1ccc(C(c2ccc(OC(C)=O)cc2)c2ccccn2)cc1	inactive	inactive	inactive		inactive	inconclusive [cytotoxic, full curve, poor fit]	inactive		inconclusive [cytotoxic, full curve]	inactive
C[C@]12CCC(=O)C=C1CC[C@H]1[C@@H]3CC[C@](O)(C(=O)CO)[C@@]3(C)C[C@H](O)[C@@]12F	inactive	inconclusive [rising, full curve, poor fit]	inactive			inconclusive [cytotoxic, single point]	inactive		inactive	
Nc1ccc2cc3ccc(N)cc3nc2c1	inconclusive [cytotoxic, single point]				active: 5.85 µM			inconclusive [cytotoxic, single point]		
Nc1[nH]nc2nnc(-c3c(-c4ccccc4)nn4ccccc34)cc12	inconclusive [cytotoxic, partial curve]	inconclusive [cytotoxic, single point]		inconclusive [cytotoxic, single point]	inconclusive [cytotoxic, single point]	inconclusive [cytotoxic, full curve, poor fit]	inconclusive [cytotoxic, single point]			inconclusive [cytotoxic, single point]
Nc1c2ccccc2nc2ccccc12	inconclusive [cytotoxic, single point]		inconclusive [cytotoxic, single point]			active: 3.29 µM	active: 3.69 µM			
Nc1ncn([C@@H]2O[C@H](CO)[C@@H](O)[C@@H]2O)c(=O)n1	inconclusive [cytotoxic, partial curve]	active: 18.5 µM	inconclusive [cytotoxic, full curve]	active: 13.1 µM				inconclusive [cytotoxic, partial curve]		
C[n+]1c2cc(N)ccc2cc2ccc(N)cc21 (tested in a mixture with another compound)	inconclusive [cytotoxic, partial curve]	active: 0.928 µM		inconclusive [cytotoxic, full curve]	active: 13.1 µM			active: 16.8 µM		
COc1cccc2c(NCc3ccccc3)nc(-n3c(N)nc4ccccc43)nc12	active: 14.8 µM		active: 2.33 µM		inconclusive [cytotoxic, full curve, poor fit]					active: 7.37 µM
Oc1cccc(-c2nc(N3CCOCC3)c3oc4ncccc4c3n2)c1	active: 13.6 µM	inconclusive [cytotoxic, full curve]	inconclusive [cytotoxic, full curve]		active: 2.93 µM					
Cc1ccc(C(N)=O)cc1Nc1nccc(-c2cn(C(C)C)c3cnccc23)n1	inconclusive [cytotoxic, partial curve]		active: 13.5 µM	inconclusive [cytotoxic, full curve, poor fit]	active: 21.4 µM			active: 18.7 µM		inconclusive [cytotoxic, full curve, poor fit]
CCOc1cc(N2CCC(O)CC2)ccc1Nc1ncc2c(n1)N(C)c1ccccc1C(=O)N2C	inconclusive [cytotoxic, partial curve]	inconclusive [cytotoxic, partial curve, poor fit]	inconclusive [cytotoxic, partial curve, poor fit]	inconclusive [cytotoxic, partial curve]	inconclusive [cytotoxic, full curve, poor fit]		inconclusive [cytotoxic, partial curve, poor fit]	active: 2.96 µM		
COc1cc(Nc2ncc(F)c(Nc3ccc4c(n3)N(COP(=O)(O)O)C(=O)C(C)(C)O4)n2)cc(OC)c1OC	inconclusive [cytotoxic, full curve]	inconclusive [cytotoxic, partial curve]		inconclusive [cytotoxic, full curve]	inconclusive [cytotoxic, full curve, poor fit]					
COC(=O)c1ccc2c(C(=Nc3ccc(N(C)C(=O)CN4CCN(C)CC4)cc3)c3ccccc3)c(O)[nH]c2c1	inconclusive [cytotoxic, partial curve]	inactive	active: 26.1 µM	inactive	inactive			active: 18.7 µM	inconclusive [cytotoxic, single point]	
O=[N+]([O-])c1ccc(O)c2ncccc12	inconclusive [cytotoxic, partial curve]		inconclusive [cytotoxic, full curve, poor fit]	active: 7.37 µM	inconclusive [cytotoxic, full curve, poor fit]			inconclusive [cytotoxic, partial curve]	inconclusive [cytotoxic, full curve, poor fit]	
C[n+]1cc2c3c(ccc2c2ccc4cc5c(cc4c21)OCO5)OCO3	active: 2.59 µM			active: 3.23 µM				active: 2.59 µM		
C#Cc1cccc(Nc2ncnc3cc(OC)c(OCCCCCCC(=O)NO)cc23)c1	active: 11.8 µM					active: 0.603 µM		active: 0.372 µM		
COc1ccc(-c2cc3c(C)nc(N)nc3n(C3CCC(OCCO)CC3)c2=O)cn1 (stereo not given)	active: 4.18 µM	inactive	inactive	inactive	inactive	inconclusive [cytotoxic, single point]			active: 1.17 µM	
CN(C)c1ccc(C(=C2C=CC(=[N+](C)C)C=C2)c2ccc(N(C)C)cc2)cc1	active: 11.9 µM and active: 5.9 µM		active: 0.737 µM		active: 1.17 µM			active: 6.68 µM and active: 1.66 µM		
CO[C@@H]1[C@@H](O)[C@H](O)[C@@H](n2c3c(Cl)cccc3c3c4c(c5c6cccc(Cl)c6[nH]c5c32)C(=O)NC4=O)O[C@@H]1CO	inconclusive [cytotoxic, full curve]	active: 4.65 µM	inconclusive [cytotoxic, full curve]	active: 1.47 µM	active: 5.22 µM					
CCCCC(CC)CN=C(N)NC(N)=NCCCCCCN=C(N)NC(N)=NCC(CC)CCCC (stereo not given)	active: 18.8 µM	active: 5.22 µM		active: 9.27 µM	active: 1.17 µM			active: 21.1 µM		
CC(C)C[C@H](NC(=O)CNC(=O)c1cc(Cl)ccc1Cl)B1OC(=O)CC(CC(=O)O)(C(=O)O)O1 (stereo not given in full)	active: 1.48 µM			inconclusive [cytotoxic, full curve, poor fit]	active: 0.147 µM			active: 0.296 µM		
CNC(=O)c1ccccc1Nc1nc(Nc2ccc(N3CCOCC3)cc2OC)ncc1Cl	active: 1.32 µM	inconclusive [cytotoxic, full curve]	inconclusive [cytotoxic, full curve]	active: 8.27 µM						
COc1ccc(Nc2cc(-c3cnc(N)nc3)nc(N3CCOCC3)n2)cn1	active: 5.9 µM	inconclusive [cytotoxic, partial curve]	inconclusive [cytotoxic, partial curve, poor fit]	inconclusive [cytotoxic, full curve]		active: 6.57 µM		active: 2.96 µM		
